# Results reported in PubChem BioAssay AID1345082 (National Center for Advancing Translational Sciences (NCATS), 2018).
# About 4,000 (4.3%) of roughly 94,000 compounds were called active. Inconclusive results, whose numbers are uncertain, are shown with a selection of clear calls. Calls come from the whole dose curve; as a rule, active = well fitted inhibition curve with a large enough effect; inconclusive = small, poorly fitted or top-dose-only effect; inactive = no such curve, though single readings can be large or run the other way. Where the call is inconclusive, the potency comes from a doubtful curve fit.
# Assay: Cytotoxic Profiling in NIH 3T3 Cell Line of Diverse Libraries Using Quantitative High-Throughput Screening; note: nearly all actives have a fitted effect of over 55% in size
# Settings: NIH 3T3 viability, CellTiter-Glo ATP luminescence, 48-72 h; activity change, negative = cytotoxicity: at 96.7 µM (top of the series); series mostly up to 96.7 µM
# Summary of the method: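 Cells were seeded at 400 per well, treated with pin-transferred compound, and kept 48 or 72 hr at 37 °C before CellTiter-Glo addition and luminescence imaging of cellular ATP.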
# % is set by controls: 0 for no effect and ±100 for the full control effect; potency is the fitted concentration of half-maximal effect; tags give direction and shape of the fitted curve.
SMILES,"activity change, negative = cytotoxicity",Potency,outcome
O=C1Nc2ccccc2CC12CCCN(Cc1ccccc1)C2 (configuration not stated),inactive: -12.1% [at 138 µM],–,–
O=C(C1CCCN(Cc2cccc(-c3cccs3)c2)C1)N1CCCC1 (configuration not stated),–,"inconclusive: 89.1 µM [inhibitor, partial curve, poor fit]",–
Cc1nc(N2CCC(NCCN3CCCOC3=O)CC2)c2ccsc2n1,inactive: -14.7%,–,–
COC[C@H]1CCCN1c1nc(CCN)nc2sc(C)c(C)c12,–,"inconclusive: 50.1 µM [inhibitor, partial curve, poor fit]",–
O=C(c1ccc(F)cc1)N1CCC(C(=O)N2CCC(c3ccccc3)CC2)CC1,–,"inconclusive: 44.7 µM [inhibitor, partial curve, poor fit]",–
O=C(Cc1cccc(F)c1)N1CC(Oc2cccc(-c3nc(-c4ccccc4)no3)c2)C1,–,active: 35.5 µM,–
CCOc1cccc(CN2CC(Oc3ccccc3C(=O)NC3CC3)C2)c1,–,"inconclusive: 39.8 µM [inhibitor, partial curve, poor fit]",–
COc1ccc(CCC(=O)N2CCCCCC2c2nc(-c3cccnc3)no2)cc1 (configuration not stated),–,"inconclusive: 50.1 µM [inhibitor, single point]",–
Cc1ccsc1CN1CCCCCCNC(=O)CC1,inactive: -16.1%,–,–
CCc1nc2c(c(-c3ccc(O)cc3)n1)CN(C(=O)C(C)(C)C)CC2,–,"inconclusive: 39.8 µM [inhibitor, partial curve]",–
O=C(NCCCc1ccccn1)c1ccc2nc(-c3ccc(F)cc3)cn2c1,–,"inconclusive: 50.1 µM [inhibitor, partial curve, poor fit]",–
CCCCN(C)C(=O)CCC1CCN(c2cc(NC3CC3)ncn2)CC1,–,"inconclusive: 39.8 µM [inhibitor, partial curve, poor fit]",–
Cc1noc(C)c1-c1cc2cc(CNC(C)C)oc2c(NC2CCN(C)CC2)n1,–,"inconclusive: 56.2 µM [inhibitor, partial curve, poor fit]",–
COCCNC(=O)[C@@H]1C[C@H](Oc2cccnc2)CN1C(=O)C1(C)CCCCC1,inactive: 4.89%,–,–
O=C(Nc1ccc2c(N3CCCCC3)ncnc2c1)c1ccsc1,–,"inconclusive: 5.62 µM [inhibitor, full curve, poor fit]",–
COc1ccccc1-c1nc(N2CCOCC2)cc2c1CN(Cc1cnn(C)c1)C2=O,–,active: 25.1 µM,–
O=C([C@@H]1C[C@H](F)CN1S(=O)(=O)c1cccc(F)c1)N1CCCCC1,–,"inconclusive: 70.8 µM [inhibitor, single point]",–
CCN1C(=O)Cc2cc(C(=O)Nc3ccccc3)ccc21,–,"inconclusive: 15.8 µM [inhibitor, full curve, poor fit]",–
Cc1cccc(C(=O)NC2CCN(c3cc(-c4cccs4)[nH]n3)C2)c1 (configuration not stated),–,"inconclusive: 50.1 µM [inhibitor, partial curve, poor fit]",–
CN1CCCC[C@]2(C[C@H](CO)[C@H](c3ccccc3)N2C(=O)CC2CCCC2)C1=O,–,"inconclusive: 50.1 µM [inhibitor, partial curve, poor fit]",–
C[S+](=O)([O-])c1ccc(-c2cc(C(=O)N3CCN(c4ncccn4)CC3)nn3cccc23)cc1,inactive: -24%,–,–

SMILES,"activity change, negative = cytotoxicity",Potency,outcome
O=C(Nc1ccc(F)cc1)C1CCCN(c2ccnc3ccnn23)C1 (configuration not stated),–,"inconclusive: 50.1 µM [inhibitor, partial curve]",–
COc1ccc(NC(=O)c2ccc3c(c2)N(C(=O)c2ccc(F)cc2)CC3)cc1,–,"inconclusive: 39.8 µM [inhibitor, partial curve]",–
O=C(CC1COCCN1)N1CCN(C/C=C/c2ccccc2)CC1 (configuration not stated),inactive: -4%,–,–
COc1ccc(CNC(=O)CNC(=O)c2cccc(-c3ccc(SC)cc3)c2)cc1OC,–,"inconclusive: 44.7 µM [inhibitor, partial curve, poor fit]",–
O=C1CO[C@H]2CCN(Cc3ccncc3)CC[C@@H]2N1Cc1ccccc1,–,"inconclusive: 89.1 µM [inhibitor, partial curve, poor fit]",–
COc1cccc(CNC(=O)C2CCN(Cc3ccccc3-c3cccnc3)CC2)c1,–,"inconclusive: 50.1 µM [inhibitor, partial curve, poor fit]",–
COc1ccc(CN2C(=O)[C@@H]3C[C@@H](CN3C(=O)c3ccc(Cl)cc3)Oc3ccccc32)cc1,–,"inconclusive: 39.8 µM [inhibitor, partial curve]",–
Cc1oc(C(O)c2cncnc2)nc1C(=O)Nc1ccc2c(c1)NC(=O)CO2 (configuration not stated),–,"inconclusive: 20 µM [inhibitor, full curve, poor fit]",–
Cc1ccc2nc(CO[C@H]3CN(Cc4ccc(C(=O)O)cc4)C[C@H]3F)[nH]c2c1,–,–,inactive [at 138 µM]
O=C1NC2(CCN(CC3CCCCC3)C2)Oc2ccccc21 (configuration not stated),–,"inconclusive: 79.4 µM [inhibitor, partial curve]",–
CN(C)c1ccc(CN2CC(Oc3ccc(F)cc3F)C2)cc1,–,"inconclusive: 70.8 µM [inhibitor, partial curve, poor fit]",–
Cc1cn2nc(C(=O)NCc3ccc(F)cc3)cc2c(N2CCCC2)n1,–,"inconclusive: 50.1 µM [inhibitor, partial curve, poor fit]",–
Cn1ncc2c(C(=O)NC3CCC3)cc(-c3cccc(F)c3)nc21,–,"inconclusive: 50.1 µM [inhibitor, partial curve, poor fit]",–
COc1ccc(CN2CCC(O)(c3csc(CN4CC[C@@H](O)C4)n3)CC2)cc1,inactive: -15.9% [at 174 µM],–,–
COc1ccccc1CN1CCc2c(n(CCOc3ccccc3)n(-c3ccccc3)c2=O)C1,–,"inconclusive: 70.8 µM [inhibitor, single point]",–
CN1[C@@H](CCC(=O)NCc2ccc(F)cc2)CNC(=O)[C@@H]2[C@H]1CCN2Cc1ccc(C(F)(F)F)cc1,–,"inconclusive: 31.6 µM [inhibitor, partial curve]",–
O=C(c1ccc2[nH]ccc2c1)N1CCN(c2cc(-c3ccccc3)[nH]n2)CC1,–,"inconclusive: 39.8 µM [inhibitor, partial curve, poor fit]",–
CCCCCC(=O)Nc1nc2c(s1)C[C@@H]1[C@](C)(CO)[C@H](O)CC[C@@]1(C)[C@@H]2CC(=O)NCc1cccnc1,–,"inconclusive: 79.4 µM [inhibitor, partial curve, poor fit]",–
c1ccc(-c2cn3c(n2)CO[C@@H](CNCC2CCCCC2)C3)cc1,–,active: 100 µM,–
COC(=O)N1CCN(c2nccc(Nc3ccccc3F)n2)CC1,–,"inconclusive: 56.2 µM [inhibitor, partial curve, poor fit]",–
COc1ccc(-c2noc([C@@H]3Cc4nc[nH]c4CN3C(=O)Nc3ccc(Cl)cc3)n2)cc1,–,"inconclusive: 44.7 µM [inhibitor, partial curve, poor fit]",–

SMILES,"activity change, negative = cytotoxicity",Potency,outcome
COc1cccc(CN2CCC3(C2)NC(=O)c2ccccc2CO3)c1 (configuration not stated),–,"inconclusive: 35.5 µM [inhibitor, partial curve, poor fit]",–
CCC1CN(Cc2cn(-c3ccccc3C)nc2-c2ccc(OC)c(F)c2)CCO1 (configuration not stated),–,"inconclusive: 89.1 µM [inhibitor, single point]",–
Cc1cc(C(=O)N2C[C@@H](F)C[C@H]2C(=O)N2CCc3ccccc3C2)n(C)n1,inactive: 4.54%,–,–
COc1ccc(-c2cc(N3CCC(NC(=O)c4cccc(Cl)c4)C3)n[nH]2)cc1 (configuration not stated),–,"inconclusive: 70.8 µM [inhibitor, single point]",–
Cc1cc2nc3n(c(=O)c2n1CC(=O)NC1CCc2ccccc21)CCCCC3 (configuration not stated),–,"inconclusive: 50.1 µM [inhibitor, partial curve, poor fit]",–
CC(C)CN(Cc1cccnc1)C1CN(C(=O)CCc2nc3ccccc3s2)C1,–,"inconclusive: 50.1 µM [inhibitor, partial curve, poor fit]",–
CC(C)CN1C(=O)c2cccn2CC1C(=O)NCc1ccc(OC(C)C)cc1 (configuration not stated),inactive: -18.1%,–,–
CC(C)(C)c1csc(NC(=O)C2CC(=O)N(c3n[nH]c4cccc(F)c34)C2)n1 (configuration not stated),–,"inconclusive: 50.1 µM [inhibitor, partial curve, poor fit]",–
COc1cccc(CNC2(Cc3cc(C(C)(C)O)on3)COC2)c1,inactive: 2.29% [at 174 µM],–,–
COc1ccc(C(=O)N2CCCC(C(=O)N3CCC(c4nc5ccncc5[nH]4)CC3)C2)cc1 (configuration not stated),inactive: -13.4%,–,–
O=C(Nc1ccc([C@H]2OCC(=O)N(Cc3cccnc3)[C@@H]2CO)cc1)c1cc(F)cc(F)c1,–,"inconclusive: 31.6 µM [inhibitor, partial curve, poor fit]",–
Cc1cc(-c2cc3c(cn2)CN(Cc2ccccc2F)CCN3)ccn1,–,"inconclusive: 56.2 µM [inhibitor, partial curve]",–
Cc1ccccc1-c1ccc2c(n1)CN(CCOc1ccccc1)C(=O)CO2,–,"inconclusive: 89.1 µM [inhibitor, partial curve]",–
CCCC(=O)N1Cc2ccccc2CC2(CCCN2Cc2ccncc2)C1 (configuration not stated),inactive: -8.16%,–,–
COC[C@H]1NC(=O)CC[C@H]1C(=O)N1CCN(c2ccccc2)CC1,inactive: -15.5%,–,–
COCC(=O)N1CC(N2C(=O)c3c(c(C)nn3-c3ccccc3)C2C2CC2)C1 (configuration not stated),–,active: 112 µM,–
O=C1NCCCCCCN(C(=O)c2cccnc2)[C@H]2C[C@H](C(=O)N3CCc4ccccc4C3)C[C@@H]12,–,active: 28.2 µM,–
O=C(NC[C@H]1O[C@H](Cc2cc(-c3ccccc3)on2)CC[C@@H]1O)c1cnccn1,–,"inconclusive: 89.1 µM [inhibitor, partial curve, poor fit]",–
COc1ccc(-c2nnc(C[C@@H]3C[C@@H](C(C)C)[C@H](CNC(=O)c4ccc(F)cc4)C=C3C)o2)cc1,–,"inconclusive: 56.2 µM [inhibitor, partial curve, poor fit]",–
O=c1n(-c2ccc([N+](=O)[O-])cc2)nc2n1CCN(Cc1ccccc1)C2,–,"inconclusive: 39.8 µM [inhibitor, partial curve, poor fit]",–
